Data published in PubChem BioAssay AID1508623 (National Center for Advancing Translational Sciences (NCATS), 2021).
Among all 48,000 compounds or so, about 450 (0.94%) were called active. This list was built around the results that the source calls inconclusive (neither active nor inactive); the mix of calls is not that of the screen. Calls follow the shape of the dose curve; as a rule, active = well fitted inhibition curve with a large enough effect; inconclusive = small, poorly fitted or top-dose-only effect; inactive = no such curve, though single readings can be large or run the other way. A potency beside an inconclusive call is a rough fit, not a confirmed value.
Potency is read from the fitted curve at half-maximal effect; tags tell the direction and shape of the fitted curve.

Test: Primary qHTS for Identification of Small Molecule Inhibitors of Huntingtin Promoter Activity; also: nearly all actives have a fitted effect of over 50% in size
Conditions: HEK293 HTT promoter firefly luciferase reporter (activity 0% = vehicle and -100% = no light), 24 h; activity change, negative = inhibition: at 57.5 µM (top of the series)
How it was run: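 HEK293 Fluc reporter, 2,500 cells/well, 24 h pre-culture; cpds up to 57.5 uM final, 24 h 37 degrees C; Dual-Glo, 10 min RT; normalized vehicle = 0%, zero RLU = -100%.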
In the case of Cc1c(NC(=O)c2ccc(Br)o2)cccc1-c1nc2ccccc2o1, the Potency is reported as inconclusive: 28.2 µM [inhibitor, partial curve, poor fit]. In the case of CCCOc1cccc(C(=O)Nc2ccc(-c3cc4ccccc4oc3=O)c(C)c2)c1, the Potency is reported as inconclusive: 39.8 µM [inhibitor, single point]. In the case of CCOC(=O)c1c(C)[nH]c(C)c1S(=O)(=O)N1CCC(C(=O)Nc2ccc(C)c(Cl)c2)CC1, the Potency is reported as inconclusive: 28.2 µM [inhibitor, partial curve, poor fit]. With CC(=O)Nc1ccc(Nc2ncnc3c2c(-c2ccccc2)cn3-c2ccc(C)c(Cl)c2)cc1 the Potency was inconclusive: 39.8 µM [inhibitor, single point]. For CCOC(=O)c1c(NC(=O)CSc2cn(CCNC(=O)c3ccccc3F)c3ccccc23)sc2c1CCCC2, the Potency was inconclusive: 39.8 µM [inhibitor, partial curve, poor fit]. For COCCN(CCOC)c1ncnc2c1c(-c1ccccc1)cn2-c1ccc(C)c(Cl)c1, the Potency was inconclusive: 17.8 µM [inhibitor, partial curve, poor fit]. With Cc1ccc(Cn2cc(CCC(=O)NCc3ccc(OC(C)C)cc3)c3ccccc32)cc1 the Potency was inconclusive: 28.2 µM [inhibitor, single point]. For Cc1ccc(NC(=O)Cn2c(=O)n(Cc3ccc4c(c3)OCO4)c(=O)c3ccc(C(=O)NC4CCCCC4)cc32)c(C)c1, the “activity change, negative = inhibition” value was inactive: -7.08%. For O=C(c1ccc2c(c1)N(Cc1cccc(Cl)c1)C(=O)c1ccccc1S2)N1CCOCC1, the Potency was inconclusive: 31.6 µM [inhibitor, partial curve, poor fit]. For CN1CCN(C(CNC(=O)C(=O)Nc2cccc(Cl)c2)c2ccc3c(c2)OCO3)CC1 (configuration not stated), the “activity change, negative = inhibition” value was inactive: -15.7%. For CCc1ccc(NC(=O)c2cnc3sc(N4CCCC4)nn3c2=O)cc1, the Potency was inconclusive: 1 µM [inhibitor, full curve, poor fit]. In the case of COc1ccccc1NC(=O)C1CCC(CNS(=O)(=O)c2ccc3c(c2)CC(C)N3C(C)=O)CC1 (configuration not stated), the Potency is reported as inconclusive: 28.2 µM [inhibitor, partial curve, poor fit]. In the case of Cc1cc(=O)n(CC(=O)N2CCN(c3ccc(F)cc3)CC2)c2c1c(C)nn2C, the Potency is reported as inconclusive: 20 µM [inhibitor, partial curve, poor fit]. With Cc1ccc(Cl)cc1NC(=O)CN1C(=O)C(C)(C)c2cc(S(=O)(=O)N3CCCCC3)ccc21 the Potency was inconclusive: 25.1 µM [inhibitor, partial curve, poor fit]. In the case of CC(=O)c1cccc(NC(=O)c2cc3c(s2)-c2c(C)cccc2OC3)c1, the Potency is reported as inconclusive: 10 µM [inhibitor, partial curve, poor fit]. In the case of CC(C)CCN(C(=O)Nc1ccc(Cl)c(Cl)c1)C(C)c1cccs1 (configuration not stated), the Potency is reported as inconclusive: 39.8 µM [inhibitor, single point]. With O=C1Nc2ccc(Cl)cc2[C@@](C#CC2CC2)(C(F)(F)F)O1 the Potency was inconclusive: 22.4 µM [inhibitor, single point]. In the case of Cc1ccc(NC(=O)C2CCN(S(=O)(=O)c3cc(-c4noc(C)n4)ccc3C)CC2)c(C)c1, the Potency is reported as active: 11.2 µM. In the case of O=C1c2ccccc2-c2onc3c(NCCO)cc(NC4CCCCC4)c1c23, the Potency is reported as inconclusive: 25.1 µM [inhibitor, partial curve, poor fit]. With CCCCOc1ccc(Cn2c(=O)sc3ccccc32)cc1 the Potency was inconclusive: 31.6 µM [inhibitor, single point]. With CCC(CC)[C@H](NC(C)=O)[C@@H]1[C@H](O)[C@@H](C(=O)O)C[C@@H]1N=C(N)N the “activity change, negative = inhibition” value was inactive: 6.03%. In the case of N#Cc1cccc(NC(=O)c2ccc3c(c2)N(Cc2cccc(Cl)c2)C(=O)c2ccccc2S3(=O)=O)c1, the Potency is reported as inconclusive: 14.1 µM [inhibitor, partial curve]. For O=C(C=Cc1c(C(=O)O)[nH]c2cc(Cl)cc(Cl)c12)Nc1ccccc1, the “activity change, negative = inhibition” value was inactive: 3.42%. In the case of CCc1ccc(NC(=O)CN(Cc2ccccc2)S(=O)(=O)c2ccc3nc(C)sc3c2)cc1, the Potency is reported as inconclusive: 28.2 µM [inhibitor, single point]. In the case of c1ccc(-c2nn3c(c2-c2ccnc4cc(OCCN5CCOCC5)ccc24)CCC3)nc1, the Potency is reported as inconclusive: 8.63 µM [inhibitor, partial curve, poor fit]. With COc1ccccc1C1C=C(c2ccc(Cl)cc2)Nc2nc(-c3ccc(Cl)cc3)nn21 (configuration not stated) the Potency was inconclusive: 39.8 µM [inhibitor, partial curve, poor fit]. In the case of Cc1ccc(CN(C(=O)COc2ccc(Br)cc2)c2ccccn2)o1, the Potency is reported as inconclusive: 39.8 µM [inhibitor, single point]. With COC(=O)c1ccc(OCC2c3cc(OC)c(OC)cc3CCN2C(=O)c2ccccc2F)cc1 (configuration not stated) the Potency was inconclusive: 31.6 µM [inhibitor, partial curve, poor fit]. With CCCCCn1c(=N)n(CC(O)COc2cccc(C)c2)c2ccccc21 (configuration not stated) the Potency was inconclusive: 31.6 µM [inhibitor, single point]. For O=C(O)Cn1nnc(-c2cc(N3CCC(Oc4cc(F)ccc4Br)CC3)no2)n1, the Potency was inconclusive: 1.37 µM [inhibitor, partial curve]. In the case of O=C(c1ccc(F)cc1)C1CCN(CCn2c(=S)[nH]c3ccccc3c2=O)CC1, the “activity change, negative = inhibition” value is reported as inactive: -2.29%. With COc1ccc(NC(=O)Cc2csc(COc3cccc(C)c3)n2)c(OC)c1 the Potency was inconclusive: 31.6 µM [inhibitor, single point]. For O=C(Nc1cccc(Br)c1)c1cccc(S(=O)(=O)N2CCCCCC2)c1, the Potency was inconclusive: 27.3 µM [inhibitor, single point]. In the case of CCCN(CCC)CC(O)Cn1cc(/C=C/C(=O)c2ccc(OCC)cc2)c2ccccc21 (configuration not stated), the Potency is reported as inconclusive: 39.8 µM [inhibitor, single point]. With COc1ccc(OCC(=O)NCCS(=O)(=O)N2CCN(c3cccc(Cl)c3)CC2)cc1 the Potency was inconclusive: 39.8 µM [inhibitor, single point]. With CN(C)c1ccc(C(=C2C=CC(=[N+](C)C)C=C2)c2ccccc2)cc1 the Potency was inconclusive: 39.8 µM [inhibitor, single point]. In the case of CCc1ccc(NC(=O)CSc2nnc(-c3cc4occc4n3C)n2-c2ccccc2C)cc1, the Potency is reported as inconclusive: 39.8 µM [inhibitor, single point]. With COc1ccccc1CNC(=O)Cn1nc(C)c2nn(-c3ccc(Cl)cc3)c(C)c2c1=O the Potency was inconclusive: 14.1 µM [inhibitor, partial curve, poor fit]. With CC(C)COc1ccccc1C1CC(=O)Nc2cc3c(cc21)OCO3 (configuration not stated) the Potency was inconclusive: 2.82 µM [inhibitor, partial curve, poor fit]. With Cc1cccc(C)c1OCC(=O)N[C@@H](Cc1ccccc1)[C@@H](O)C[C@H](Cc1ccccc1)NC(=O)[C@H](C(C)C)N1CCCNC1=O the Potency was inconclusive: 30.6 µM [inhibitor, single point]. For COc1ccc(CCC(=O)NCc2ccc3c(c2)CCN3C(=O)c2ccc(C)cc2)cc1, the Potency was inconclusive: 22.4 µM [inhibitor, partial curve, poor fit]. In the case of CCOCCCn1c(=N)c(C(=O)NCC2CCCO2)cc2c(=O)n3cc(C)ccc3nc21 (configuration not stated), the “activity change, negative = inhibition” value is reported as inactive: -2.26%. With CCOc1ccccc1CNC(=O)CN1C(=O)CCc2cc(S(=O)(=O)N3CCCCC3)ccc21 the Potency was inconclusive: 22.4 µM [inhibitor, partial curve, poor fit]. For c1ccc(CNc2nc(N3CCOc4ccccc43)nc3c2CCCC3)cc1, the “activity change, negative = inhibition” value was inactive: -16.7%. In the case of Cc1cccc(OCC(=O)Nc2ccc3nc(Nc4cccc(Cl)c4)cc(C)c3c2)c1, the “activity change, negative = inhibition” value is reported as inactive: -26.2%. In the case of CCc1ccc(S(=O)(=O)c2nnn(-c3cccc(C)c3)c2N)cc1, the Potency is reported as inconclusive: 25.1 µM [inhibitor, single point]. With COc1cc(C(=O)Nc2ccc(-c3cc(C(F)(F)F)nn3-c3ccccc3)cc2)cc(OC)c1OC the Potency was inconclusive: 14.1 µM [inhibitor, partial curve, poor fit]. In the case of Cc1ccccc1NC(=O)CSc1nc2ccc(NC(=O)COc3ccccc3F)cc2s1, the “activity change, negative = inhibition” value is reported as inactive: -14.3%. For O=C(NCc1ccc(F)cc1)C1CCN(C(=O)c2cnn(-c3ccccc3)c2-n2cccc2)CC1, the Potency was inconclusive: 28.2 µM [inhibitor, single point]. For Cc1ccc(C(=O)N2CCN(c3ccccc3F)CC2)cc1NC(=O)c1nsc2ccccc12, the Potency was inconclusive: 39.8 µM [inhibitor, partial curve, poor fit]. With COc1ccc(N2C(=O)C(CC(=O)Nc3ccc(F)cc3)N(CCC3=CCCCC3)C2=O)cc1 (configuration not stated) the Potency was inconclusive: 31.6 µM [inhibitor, partial curve, poor fit]. With CCn1cc2nc(SCc3cccc(OC)c3)n(Cc3ccc(Cl)cc3)c(=O)c2n1 the Potency was inconclusive: 31.6 µM [inhibitor, partial curve, poor fit]. With COC(=O)c1cc2sccc2n1Cc1ccccc1 the Potency was inconclusive: 39.8 µM [inhibitor, partial curve, poor fit]. In the case of O=[N+]([O-])c1ccc(O)c2ncccc12, the Potency is reported as inconclusive: 20 µM [inhibitor, partial curve, poor fit]. In the case of O=S(=O)(NCc1ccccc1)c1ccc2[nH]c3c(c2c1)CCCCC3, the Potency is reported as inconclusive: 14.1 µM [inhibitor, partial curve]. For COc1cccc(NS(=O)(=O)c2ccc3[nH]cc(C(=O)NC4CCCCC4)c(=O)c3c2)c1, the Potency was inconclusive: 25.1 µM [inhibitor, partial curve]. In the case of CCOC(=O)C1CCCN(C(=O)c2cc3c(=O)n(C)c4ccccc4c3s2)C1 (configuration not stated), the Potency is reported as inconclusive: 39.8 µM [inhibitor, single point].
